# Laboratory results published in the supplement of paper PMC8728848.
# This is one part of the list.
# B1: Tectonin 2 (Laccaria bicolor) (protein)
# chain: MPWKGISGSLSRISAGSVTNVWGVNAANNIYRYTGDDAKPWVQIPGALTDIGAAADGTVWGVNAAGNIYRYVWDSNHWTQIKGALKRISAGSRTNVWGVNAGGAIYRYTGDDANPWVQIPGVLSDIGAGADGTVWGVNAAGEIYRYTGDQGDPNHWVKIPGALSAISAGIKTNVWGVNSANNIYTSTGDDKNPWLGIGGSLVDIGAGTDGVVWGVNAGGGIYRWIRD
# What was measured:
# Test in all cases: glycan array binding signal (z-score within array); higher = stronger binding
# Conditions in all cases: glycan notation: IUPAC condensed, linker removed
# [1] = biological target: GlcNAc(b1-6)Gal(b1-4)GlcNAc
# In short: (§1)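 The binding signal is a Z-score computed within each array. Data were drawn from 3228 arrays in the Consortium for Functional Glycomics database, restricted to those with a known protein sequence. Scores were averaged over arrays of the same protein sequence at different concentrations or buffers, and over linkers, and negative values can be taken as non-binding.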
# [2] = biological target: GlcNAc(b1-6)GalNAc
# In short: as §1
# [3] = biological target: GlcNAc3Prop(b1-4)GlcNAc
# In short: as §1
# [4] = biological target: GlcNAc6S(b1-3)Gal(b1-4)GlcNAc
# In short: as §1
# [5] = biological target: Kdn(a2-3)Gal(b1-3)GalNAc
# In short: as §1
# [6] = biological target: Kdn(a2-3)Gal(b1-3)GlcNAc
# In short: as §1
# [7] = biological target: Kdn(a2-3)Gal(b1-4)Glc
# In short: as §1
# [8] = biological target: Kdn(a2-3)Gal(b1-4)GlcNAc
# In short: as §1
# [9] = biological target: Kdn(a2-3)Gal(b1-4)[Fuc(a1-3)]GlcNAc
# In short: as §1
# [10] = biological target: Kdn(a2-6)Gal(b1-4)GlcNAc
# In short: as §1
# [11] = biological target: Man(a1-2)Man(a1-2)Man(a1-3)Man
# In short: as §1
# [12] = biological target: Man(a1-2)Man(a1-2)Man(a1-6)[Man(a1-3)]Man
# In short: as §1
# [13] = biological target: Man(a1-2)Man(a1-3)Man
# In short: as §1
# [14] = biological target: Man(a1-2)Man(a1-3)[Man(a1-2)Man(a1-6)]Man
# In short: as §1
# [15] = biological target: Man(a1-2)Man(a1-3)[Man(a1-2)Man(a1-6)]Man(a1-6)[Man(a1-2)Man(a1-2)Man(a1-3)]Man
# In short: as §1
# [16] = biological target: Man(a1-2)Man(a1-3)[Man(a1-2)Man(a1-6)]Man(a1-6)[Man(a1-2)Man(a1-2)Man(a1-3)]Man(b1-4)GlcNAc(b1-4)GlcNAc
# In short: as §1
# [17] = biological target: Man(a1-2)Man(a1-3)[Man(a1-6)]Man(a1-6)[Man(a1-2)Man(a1-3)]Man(b1-4)GlcNAc(b1-4)GlcNAc
# In short: as §1
# [18] = biological target: Man(a1-2)Man(a1-6)[Man(a1-3)]Man(a1-6)[Man(a1-2)Man(a1-2)Man(a1-3)]Man
# In short: as §1
# [19] = biological target: Man(a1-2)Man(a1-6)[Man(a1-3)]Man(a1-6)[Man(a1-2)Man(a1-2)Man(a1-3)]Man(b1-4)GlcNAc(b1-4)GlcNAc
# In short: as §1
# [20] = biological target: Man(a1-3)[Man(a1-6)]Man
# In short: as §1
# [21] = biological target: Man(a1-3)[Man(a1-6)]Man(a1-6)[Man(a1-2)Man(a1-3)]Man(b1-4)GlcNAc(b1-4)GlcNAc
# In short: as §1
# [22] = biological target: Man(a1-3)[Man(a1-6)]Man(a1-6)[Man(a1-3)]Man
# In short: as §1
# [23] = biological target: Man(a1-3)[Man(a1-6)]Man(a1-6)[Man(a1-3)]Man(b1-4)GlcNAc(b1-4)GlcNAc
# In short: as §1
# [24] = biological target: Man(a1-3)[Man(a1-6)]Man(b1-4)GlcNAc(b1-4)GlcNAc
# In short: as §1
# [25] = biological target: Man(a1-6)Man
# In short: as §1
# [26] = biological target: Man(b1-4)GlcNAc
# In short: as §1
# [27] = biological target: Neu5Ac(a2-3)Gal
# In short: as §1
# [28] = biological target: Neu5Ac(a2-3)Gal(b1-3)GalNAc
# In short: as §1
# [29] = biological target: Neu5Ac(a2-3)Gal(b1-3)GalNAc(b1-3)Gal(a1-4)Gal(b1-4)Glc
# In short: as §1
# [30] = biological target: Neu5Ac(a2-3)Gal(b1-3)GalNAc(b1-4)[Neu5Ac(a2-3)]Gal(b1-4)Glc
# In short: as §1
# [31] = biological target: Neu5Ac(a2-3)Gal(b1-3)GalNAc(b1-4)[Neu5Ac(a2-8)Neu5Ac(a2-3)]Gal(b1-4)Glc
# In short: as §1
# [32] = biological target: Neu5Ac(a2-3)Gal(b1-3)GalNAc6S
# In short: as §1
# [33] = biological target: Neu5Ac(a2-3)Gal(b1-3)GlcNAc
# In short: as §1
# [34] = biological target: Neu5Ac(a2-3)Gal(b1-3)GlcNAc(b1-2)Man(a1-3)[Neu5Ac(a2-3)Gal(b1-3)GlcNAc(b1-2)Man(a1-6)]Man(b1-4)GlcNAc(b1-4)GlcNAc
# In short: as §1
# [35] = biological target: Neu5Ac(a2-3)Gal(b1-3)GlcNAc(b1-3)Gal(b1-3)GlcNAc
# In short: as §1
# [36] = biological target: Neu5Ac(a2-3)Gal(b1-3)GlcNAc(b1-3)Gal(b1-4)GlcNAc
# In short: as §1
# [37] = biological target: Neu5Ac(a2-3)Gal(b1-3)GlcNAc(b1-3)GalNAc
# In short: as §1
# [38] = biological target: Neu5Ac(a2-3)Gal(b1-3)GlcNAc6S
# In short: as §1
# [39] = biological target: Neu5Ac(a2-3)Gal(b1-3)[Fuc(a1-4)]GlcNAc
# In short: as §1
# [40] = biological target: Neu5Ac(a2-3)Gal(b1-3)[Fuc(a1-4)]GlcNAc(b1-3)Gal(b1-3)[Fuc(a1-4)]GlcNAc
# In short: as §1
# [41] = biological target: Neu5Ac(a2-3)Gal(b1-3)[Fuc(a1-4)]GlcNAc(b1-3)Gal(b1-4)[Fuc(a1-3)]GlcNAc
# In short: as §1
# [42] = biological target: Neu5Ac(a2-3)Gal(b1-3)[Neu5Ac(a2-3)Gal(b1-4)]GlcNAc
# In short: as §1
# [43] = biological target: Neu5Ac(a2-3)Gal(b1-3)[Neu5Ac(a2-6)]GalNAc
# In short: as §1
# [44] = biological target: Neu5Ac(a2-3)Gal(b1-4)Glc
# In short: as §1
# [45] = biological target: Neu5Ac(a2-3)Gal(b1-4)GlcNAc
# In short: as §1
# [46] = biological target: Neu5Ac(a2-3)Gal(b1-4)GlcNAc(b1-2)Man(a1-3)[GlcNAc(b1-2)Man(b1-4)GlcNAc(b1-2)Man(a1-6)]Man(b1-4)GlcNAc(b1-4)GlcNAc
# In short: as §1
# [47] = biological target: Neu5Ac(a2-3)Gal(b1-4)GlcNAc(b1-2)Man(a1-3)[Neu5Ac(a2-6)Gal(b1-4)GlcNAc(b1-2)Man(a1-6)]Man(b1-4)GlcNAc(b1-4)GlcNAc
# In short: as §1
# [48] = biological target: Neu5Ac(a2-3)Gal(b1-4)GlcNAc(b1-3)Gal
# In short: as §1
# [49] = biological target: Neu5Ac(a2-3)Gal(b1-4)GlcNAc(b1-3)Gal(b1-3)GlcNAc
# In short: as §1
# [50] = biological target: Neu5Ac(a2-3)Gal(b1-4)GlcNAc(b1-3)Gal(b1-4)GlcNAc
# In short: as §1
# [51] = biological target: Neu5Ac(a2-3)Gal(b1-4)GlcNAc(b1-3)Gal(b1-4)GlcNAc(b1-3)Gal(b1-4)GlcNAc
# In short: as §1
# [52] = biological target: Neu5Ac(a2-3)Gal(b1-4)GlcNAc(b1-3)Gal(b1-4)[Fuc(a1-3)]GlcNAc
# In short: as §1
# [53] = biological target: Neu5Ac(a2-3)Gal(b1-4)GlcNAc(b1-3)GalNAc
# In short: as §1
# [54] = biological target: Neu5Ac(a2-3)Gal(b1-4)GlcNAc(b1-6)[Gal(b1-3)]GalNAc
# In short: as §1
# [55] = biological target: Neu5Ac(a2-3)Gal(b1-4)GlcNAc(b1-6)[Neu5Ac(a2-3)Gal(b1-3)]GalNAc
# In short: as §1
# [56] = biological target: Neu5Ac(a2-3)Gal(b1-4)GlcNAc6S
# In short: as §1
# [57] = biological target: Neu5Ac(a2-3)Gal(b1-4)[Fuc(a1-3)]GlcNAc
# In short: as §1
# [58] = biological target: Neu5Ac(a2-3)Gal(b1-4)[Fuc(a1-3)]GlcNAc(b1-3)Gal
# In short: as §1
binder,measurement,setting,value
B1,glycan array binding signal (z-score),[1],-0.233
same,glycan array binding signal (z-score),[2],-0.376
same,glycan array binding signal (z-score),[3],-0.156
same,glycan array binding signal (z-score),[4],0.191
same,glycan array binding signal (z-score),[5],-0.039
same,glycan array binding signal (z-score),[6],0.042
same,glycan array binding signal (z-score),[7],-0.381
same,glycan array binding signal (z-score),[8],-0.032
same,glycan array binding signal (z-score),[9],-0.338
same,glycan array binding signal (z-score),[10],-0.239
same,glycan array binding signal (z-score),[11],-0.316
same,glycan array binding signal (z-score),[12],-0.42
same,glycan array binding signal (z-score),[13],-0.183
same,glycan array binding signal (z-score),[14],-0.408
same,glycan array binding signal (z-score),[15],-0.281
same,glycan array binding signal (z-score),[16],-0.318
same,glycan array binding signal (z-score),[17],-0.36
same,glycan array binding signal (z-score),[18],-0.264
same,glycan array binding signal (z-score),[19],0.033
same,glycan array binding signal (z-score),[20],-0.426
same,glycan array binding signal (z-score),[21],-0.408
same,glycan array binding signal (z-score),[22],-0.201
same,glycan array binding signal (z-score),[23],-0.297
same,glycan array binding signal (z-score),[24],-0.28
same,glycan array binding signal (z-score),[25],-0.438
same,glycan array binding signal (z-score),[26],-0.679
same,glycan array binding signal (z-score),[27],-0.237
same,glycan array binding signal (z-score),[28],-0.204
same,glycan array binding signal (z-score),[29],0.073
same,glycan array binding signal (z-score),[30],2.34
same,glycan array binding signal (z-score),[31],0.34
same,glycan array binding signal (z-score),[32],0.532
same,glycan array binding signal (z-score),[33],-0.123
same,glycan array binding signal (z-score),[34],-0.194
same,glycan array binding signal (z-score),[35],-0.469
same,glycan array binding signal (z-score),[36],-0.039
same,glycan array binding signal (z-score),[37],0.64
same,glycan array binding signal (z-score),[38],-0.427
same,glycan array binding signal (z-score),[39],-0.236
same,glycan array binding signal (z-score),[40],0.719
same,glycan array binding signal (z-score),[41],-0.208
same,glycan array binding signal (z-score),[42],0.892
same,glycan array binding signal (z-score),[43],2.15
same,glycan array binding signal (z-score),[44],-0.206
same,glycan array binding signal (z-score),[45],0.036
same,glycan array binding signal (z-score),[46],0.55
same,glycan array binding signal (z-score),[47],2.09
same,glycan array binding signal (z-score),[48],-0.218
same,glycan array binding signal (z-score),[49],0.485
same,glycan array binding signal (z-score),[50],0.692
same,glycan array binding signal (z-score),[51],0.567
same,glycan array binding signal (z-score),[52],2.47
same,glycan array binding signal (z-score),[53],-0.133
same,glycan array binding signal (z-score),[54],-0.151
same,glycan array binding signal (z-score),[55],-0.009
same,glycan array binding signal (z-score),[56],-0.071
same,glycan array binding signal (z-score),[57],0.064
same,glycan array binding signal (z-score),[58],0.824
